Columns and labels:
[1] = tested on: cabbage Alternaria sooty spot fungi (Alternaia brassicicola); assay: Test Example C: cabbage Alternaria sooty spot, spray treatment of cabbage plants; assay type: in vivo; conditions: cabbage Alternaria sooty spot, spray treatment
Excerpt: [Test Example C] Cabbage Alternaria Sooty Spot
Test plants (cabbage variety: Shikidori) were cultivated until the cotyledons extended after the sowing of seeds.
<Control Value> Control value=100{1−(n/3)}

[2] = tested on: wheat brown rust fungi (Puccinia recondita); assay: Test Example E: wheat brown rust, spray treatment of wheat plants; assay type: in vivo; conditions: wheat brown rust, spray treatment
[3] = tested on: gray mold fungi (Botrytis cinerea); assay: Test Example B: tomato gray mold, spray treatment of tomato plants; conditions: tomato gray mold, spray treatment
[4] = tested on: grape downy mildew fungus (Plasmopara viticola); assay: Test Example G: grape downy mildew, spray treatment of grape plants; conditions: grape downy mildew, 250 ppm spray, 7 to 10 days after inoculation
[5] = tested on: barley powdery mildew fungi (Blumeria graminis f. sp. hordei); assay: Test Example D: barley powdery mildew, spray treatment of barley plants; conditions: barley powdery mildew, spray treatment

SMILES | Test C control value [1] | Test E control value [2] | Test B control value [3] | Test G control value [4] | Test D control value [5]
Cc1cccc(C)c1-n1cc(Br)c(=O)c(Br)c1-c1ccccc1 [Compound 451] | L (L shows the control value of 50% or less) | L (L shows the control value of 50% or less) | L (L shows the control value of 50% or less) | L (L shows the control value of 50% or less) | L (L shows the control value of 50% or less)
Cc1cccc(C)c1-n1cc(Br)c(=O)c(Cl)c1-c1ccccc1 [Compound 452] | L (L shows the control value of 50% or less) | L (L shows the control value of 50% or less) | L (L shows the control value of 50% or less) | L (L shows the control value of 50% or less) | L (L shows the control value of 50% or less)
Cc1cn(-c2ccccc2Br)c(-c2c(F)cc(F)cc2F)c(C)c1=O [Compound 453] | H (H shows the control value of more than 50%) | H (H shows the control value of more than 50%) | H (H shows the control value of more than 50%) | H (H shows the control value of more than 50%) | H (H shows the control value of more than 50%)
Cc1ccc(F)cc1-n1cc(C)c(=O)c(C)c1-c1c(F)cc(F)cc1F [Compound 455] | H (H shows the control value of more than 50%) | H (H shows the control value of more than 50%) | H (H shows the control value of more than 50%) | H (H shows the control value of more than 50%) | H (H shows the control value of more than 50%)
Cc1ccc(F)cc1-n1cc(Br)c(=O)c(Cl)c1-c1c(F)cccc1F [Compound 457] | H (H shows the control value of more than 50%) | H (H shows the control value of more than 50%) | H (H shows the control value of more than 50%) | L (L shows the control value of 50% or less) | L (L shows the control value of 50% or less)
Cc1ncccc1-n1cc(Br)c(=O)c(Cl)c1-c1c(F)cc(F)cc1F [Compound 458] | H (H shows the control value of more than 50%) | H (H shows the control value of more than 50%) | H (H shows the control value of more than 50%) | H (H shows the control value of more than 50%) | H (H shows the control value of more than 50%)
Cc1ccc(C)c(-n2cc(Br)c(=O)c(Cl)c2-c2ccccc2)c1 [Compound 459] | L (L shows the control value of 50% or less) | L (L shows the control value of 50% or less) | H (H shows the control value of more than 50%) | L (L shows the control value of 50% or less) | L (L shows the control value of 50% or less)
Cc1c(Cl)cccc1-n1cc(C)c(=O)c(C)c1-c1c(F)cc(F)cc1F [Compound 461] | H (H shows the control value of more than 50%) | H (H shows the control value of more than 50%) | H (H shows the control value of more than 50%) | L (L shows the control value of 50% or less) | H (H shows the control value of more than 50%)
COc1cc(F)c(-c2c(C)c(=O)c(C)cn2-c2cc(F)ccc2C)c(F)c1 [Compound 462] | H (H shows the control value of more than 50%) | H (H shows the control value of more than 50%) | H (H shows the control value of more than 50%) | L (L shows the control value of 50% or less) | H (H shows the control value of more than 50%)
Cc1ccc(Cl)cc1-n1cc(C)c(=O)c(C)c1-c1c(F)cc(F)cc1F [Compound 463] | H (H shows the control value of more than 50%) | H (H shows the control value of more than 50%) | H (H shows the control value of more than 50%) | L (L shows the control value of 50% or less) | H (H shows the control value of more than 50%)
Cc1cccc(-n2cc(C)c(=O)c(C)c2-c2c(F)cc(F)cc2F)c1C [Compound 465] | H (H shows the control value of more than 50%) | H (H shows the control value of more than 50%) | H (H shows the control value of more than 50%) | H (H shows the control value of more than 50%) | H (H shows the control value of more than 50%)
Cc1cn(-c2ccccc2)c(-c2ccc(F)cc2F)c(C)c1=O [Compound 466] | H (H shows the control value of more than 50%) | H (H shows the control value of more than 50%) | H (H shows the control value of more than 50%) | L (L shows the control value of 50% or less) | H (H shows the control value of more than 50%)
O=c1c(Br)cn(-c2ccccc2)c(-c2ccccc2F)c1Cl [Compound 467] | H (H shows the control value of more than 50%) | L (L shows the control value of 50% or less) | H (H shows the control value of more than 50%) | L (L shows the control value of 50% or less) | L (L shows the control value of 50% or less)
O=c1c(Br)cn(-c2ccccc2)c(-c2ccccc2F)c1Br [Compound 468] | H (H shows the control value of more than 50%) | L (L shows the control value of 50% or less) | H (H shows the control value of more than 50%) | L (L shows the control value of 50% or less) | L (L shows the control value of 50% or less)
O=c1c(Br)cn(-c2ccccc2)c(-c2ccc(F)cc2F)c1Br [Compound 470] | H (H shows the control value of more than 50%) | H (H shows the control value of more than 50%) | H (H shows the control value of more than 50%) | L (L shows the control value of 50% or less) | L (L shows the control value of 50% or less)
Cc1cn(-c2ccccc2Cl)c(-c2ccccc2)c(C)c1=O [Compound 474] | H (H shows the control value of more than 50%) | H (H shows the control value of more than 50%) | H (H shows the control value of more than 50%) | H (H shows the control value of more than 50%) | H (H shows the control value of more than 50%)
CCc1c(-c2ccccc2)n(-c2ccccc2C)cc(Br)c1=O [Compound 475] | H (H shows the control value of more than 50%) | H (H shows the control value of more than 50%) | H (H shows the control value of more than 50%) | L (L shows the control value of 50% or less) | L (L shows the control value of 50% or less)
Cc1cn(-c2ccccc2C(F)(F)F)c(-c2c(F)cc(F)cc2F)c(C)c1=O [Compound 476] | H (H shows the control value of more than 50%) | H (H shows the control value of more than 50%) | H (H shows the control value of more than 50%) | L (L shows the control value of 50% or less) | H (H shows the control value of more than 50%)
COc1cc(F)c(-c2c(C)c(=O)c(C)cn2-c2cccc(C)c2C)c(F)c1 [Compound 477] | H (H shows the control value of more than 50%) | H (H shows the control value of more than 50%) | H (H shows the control value of more than 50%) | H (H shows the control value of more than 50%) | H (H shows the control value of more than 50%)
